Results published in the supplement of paper PMC8728848.
This is one part of the list.

What was measured:
Experiment in all cases: glycan array binding signal (z-score within array); higher = stronger binding
Conditions in all cases: glycan notation: IUPAC condensed, linker removed
[1] = target: Fuc(a1-2)[Gal(a1-3)]Gal(b1-4)GlcNAc(b1-2)Man(a1-3)[Fuc(a1-2)[Gal(a1-3)]Gal(b1-4)GlcNAc(b1-2)Man(a1-6)]Man(b1-4)GlcNAc(b1-4)GlcNAc
Procedure, shortened: (§1)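 Negative Z-scores can be read as non-binding. The Z-score is calculated within each array and then averaged across arrays of one protein sequence at different concentrations or buffers and across linkers. Arrays, 3228 in all, were curated from the Consortium for Functional Glycomics database and kept only where the protein sequence was available.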

[2] = target: Fuc(a1-2)[Gal(a1-3)]Gal(b1-4)GlcNAc(b1-2)Man(a1-3)[Fuc(a1-2)[Gal(a1-3)]Gal(b1-4)GlcNAc(b1-2)Man(a1-6)]Man(b1-4)GlcNAc(b1-4)[Fuc(a1-6)]GlcNAc
Procedure, shortened: as §1

[3] = target: Fuc(a1-2)[Gal(a1-3)]Gal(b1-4)GlcNAc(b1-3)GalNAc
Procedure, shortened: as §1

[4] = target: Fuc(a1-2)[Gal(a1-3)]Gal(b1-4)GlcNAc(b1-3)[Fuc(a1-2)[Gal(a1-3)]Gal(b1-4)GlcNAc(b1-6)]GalNAc
Procedure, shortened: as §1

[5] = target: Fuc(a1-2)[Gal(a1-3)]Gal(b1-4)GlcNAc(b1-6)GalNAc
Procedure, shortened: as §1

[6] = target: Fuc(a1-2)[Gal(a1-3)]Gal(b1-4)[Fuc(a1-3)]Glc
Procedure, shortened: as §1

[7] = target: Fuc(a1-2)[Gal(a1-3)]Gal(b1-4)[Fuc(a1-3)]GlcNAc
Procedure, shortened: as §1

[8] = target: Fuc(a1-2)[Gal(a1-3)]Gal(b1-4)[Fuc(a1-3)]GlcNAc(b1-3)GalNAc
Procedure, shortened: as §1

[9] = target: Fuc(a1-2)[Gal(a1-4)]Gal(b1-4)GlcNAc
Procedure, shortened: as §1

[10] = target: Fuc(a1-2)[GalNAc(a1-3)]Gal
Procedure, shortened: as §1

[11] = target: Fuc(a1-2)[GalNAc(a1-3)]Gal(b1-3)GalNAc(a1-3)[Fuc(a1-2)]Gal(b1-4)GlcNAc
Procedure, shortened: as §1

[12] = target: Fuc(a1-2)[GalNAc(a1-3)]Gal(b1-3)GalNAc(b1-3)Gal(a1-4)Gal(b1-4)Glc
Procedure, shortened: as §1

[13] = target: Fuc(a1-2)[GalNAc(a1-3)]Gal(b1-3)GlcNAc
Procedure, shortened: as §1

[14] = target: Fuc(a1-2)[GalNAc(a1-3)]Gal(b1-3)GlcNAc(b1-2)Man(a1-3)[Fuc(a1-2)[GalNAc(a1-3)]Gal(b1-3)GlcNAc(b1-2)Man(a1-6)]Man(b1-4)GlcNAc(b1-4)GlcNAc
Procedure, shortened: as §1

[15] = target: Fuc(a1-2)[GalNAc(a1-3)]Gal(b1-3)GlcNAc(b1-2)Man(a1-3)[Fuc(a1-2)[GalNAc(a1-3)]Gal(b1-3)GlcNAc(b1-2)Man(a1-6)]Man(b1-4)GlcNAc(b1-4)[Fuc(a1-6)]GlcNAc
Procedure, shortened: as §1

[16] = target: Fuc(a1-2)[GalNAc(a1-3)]Gal(b1-3)GlcNAc(b1-3)GalNAc
Procedure, shortened: as §1

[17] = target: Fuc(a1-2)[GalNAc(a1-3)]Gal(b1-3)GlcNAc(b1-6)GalNAc
Procedure, shortened: as §1

[18] = target: Fuc(a1-2)[GalNAc(a1-3)]Gal(b1-4)Glc
Procedure, shortened: as §1

[19] = target: Fuc(a1-2)[GalNAc(a1-3)]Gal(b1-4)GlcNAc
Procedure, shortened: as §1

[20] = target: Fuc(a1-2)[GalNAc(a1-3)]Gal(b1-4)GlcNAc(b1-2)Man
Procedure, shortened: as §1

[21] = target: Fuc(a1-2)[GalNAc(a1-3)]Gal(b1-4)GlcNAc(b1-2)Man(a1-3)[Fuc(a1-2)[GalNAc(a1-3)]Gal(b1-4)GlcNAc(b1-2)Man(a1-6)]Man(b1-4)GlcNAc(b1-4)GlcNAc
Procedure, shortened: as §1

[22] = target: Fuc(a1-2)[GalNAc(a1-3)]Gal(b1-4)GlcNAc(b1-2)Man(a1-3)[Fuc(a1-2)[GalNAc(a1-3)]Gal(b1-4)GlcNAc(b1-2)Man(a1-6)]Man(b1-4)GlcNAc(b1-4)[Fuc(a1-6)]GlcNAc
Procedure, shortened: as §1

[23] = target: Fuc(a1-2)[GalNAc(a1-3)]Gal(b1-4)GlcNAc(b1-3)Gal(b1-4)GlcNAc
Procedure, shortened: as §1

[24] = target: Fuc(a1-2)[GalNAc(a1-3)]Gal(b1-4)GlcNAc(b1-3)Gal(b1-4)GlcNAc(b1-3)Gal(b1-4)GlcNAc
Procedure, shortened: as §1

[25] = target: Fuc(a1-2)[GalNAc(a1-3)]Gal(b1-4)GlcNAc(b1-3)GalNAc
Procedure, shortened: as §1

[26] = target: Fuc(a1-2)[GalNAc(a1-3)]Gal(b1-4)GlcNAc(b1-3)[Fuc(a1-2)[GalNAc(a1-3)]Gal(b1-4)GlcNAc(b1-6)]GalNAc
Procedure, shortened: as §1

[27] = target: Fuc(a1-2)[GalNAc(a1-3)]Gal(b1-4)GlcNAc(b1-6)GalNAc
Procedure, shortened: as §1

[28] = target: Fuc(a1-2)[GalNAc(a1-3)]Gal(b1-4)[Fuc(a1-3)]GlcNAc
Procedure, shortened: as §1

[29] = target: Fuc(a1-2)[GalNAc(a1-3)]Gal(b1-4)[Fuc(a1-3)]GlcNAc(b1-3)GalNAc
Procedure, shortened: as §1

[30] = target: Fuc(a1-2)[GalNAc(a1-4)]Gal(b1-4)GlcNAc
Procedure, shortened: as §1

B1: AT1G73650(15) (Arabidopsis thaliana), F4HRY1 (protein)
chain: MGTVLDSHFLALTAIVTVIYQFIFFVITALFKFDQVTDFAGSTNFVILAVLTLVLKASWHFRQIVLTLLVVVWGLRLGIFLLMETRILQWGEDRRFDEQRGNIVRLIIFWTLQAVWVWTVSLPLTLVNASDGGGSLKPADVIGWTMETWVFGFLIEAAADQQKLSFKNSPENRGKWCDVGVWKYSRHPNYFGEMETLLWWGIFVAASPVLEGAEYLVIFGPLFLTLLLLFVSGIPLLEASADKKHGNSGAYRSYKKTTSPLILFPRGVYGNLPGWFKTVFLFEFPFYSRNLPQEGRLQNSKEKEVKDD
glycan array binding signal (z-score) [1]: 1.84 | glycan array binding signal (z-score) [2]: 0.568 | glycan array binding signal (z-score) [3]: -0.479 | glycan array binding signal (z-score) [4]: -0.263 | glycan array binding signal (z-score) [5]: 0.189 | glycan array binding signal (z-score) [6]: -0.494 | glycan array binding signal (z-score) [7]: -0.438 | glycan array binding signal (z-score) [8]: -0.11 | glycan array binding signal (z-score) [9]: 1.89 | glycan array binding signal (z-score) [10]: 0.027 | glycan array binding signal (z-score) [11]: -0.534 | glycan array binding signal (z-score) [12]: -0.314 | glycan array binding signal (z-score) [13]: 0.431 | glycan array binding signal (z-score) [14]: -0.569 | glycan array binding signal (z-score) [15]: -0.562 | glycan array binding signal (z-score) [16]: 0.226 | glycan array binding signal (z-score) [17]: -0.549 | glycan array binding signal (z-score) [18]: -0.567 | glycan array binding signal (z-score) [19]: -0.398 | glycan array binding signal (z-score) [20]: -0.431 | glycan array binding signal (z-score) [21]: -0.212 | glycan array binding signal (z-score) [22]: -0.593 | glycan array binding signal (z-score) [23]: -0.687 | glycan array binding signal (z-score) [24]: -0.286 | glycan array binding signal (z-score) [25]: -0.279 | glycan array binding signal (z-score) [26]: -0.573 | glycan array binding signal (z-score) [27]: -0.351 | glycan array binding signal (z-score) [28]: -0.543 | glycan array binding signal (z-score) [29]: 2.17 | glycan array binding signal (z-score) [30]: -0.392
